The other results are listed elsewhere or left out.

In the assay the target is T1, MBP-FoxP1dN (Mus musculus, UniProt P58462 326-579).
T1 sequence: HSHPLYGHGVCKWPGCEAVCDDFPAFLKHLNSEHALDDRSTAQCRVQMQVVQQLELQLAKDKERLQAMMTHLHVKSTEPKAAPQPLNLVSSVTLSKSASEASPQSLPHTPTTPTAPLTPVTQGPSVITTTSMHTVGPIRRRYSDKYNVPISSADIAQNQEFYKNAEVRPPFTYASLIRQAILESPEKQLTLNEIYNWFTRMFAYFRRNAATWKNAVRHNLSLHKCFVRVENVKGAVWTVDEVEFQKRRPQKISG
Description: PD-seq (MBP pull-down with sequencing); 20 mM Tris-HCl pH 7.5, 100 mM NaCl, 1.5 mM MgCl2, 0.4 uM protein, 0.1 uM dsDNA library, 30 min, room temperature, amylose pull-down; high values mean tight binding. Particulars: protein: recombinant; tags: His6-MBP; chain copies: 2; dsDNA, one strand shown. The essentials: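 Binding is the reads-per-million enrichment of pull-down relative to input, pooled across replicates. For this, 0.4 µM His6-MBP-tagged mouse FoxP3 or FoxP1 fragment lacking the N-terminus, made in E. coli, was incubated with 0.1 µM Klenow-filled double-stranded degenerate DNA library for 30 min at room temperature in Tris pH 7.5 buffer with NaCl and MgCl2. Complexes bound to amylose resin were washed three times before proteinase K released the DNA for PCR barcoding and Illumina sequencing.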
Take “GATGATTGTTCTCCCAGCTGATGAATTACTGACATCGAGTAAACAAATTTTCCTAATCTTTCTGTTCAAGCGCCATCTAC”: the binding signal was 1.1 RPM ratio (pull-down/input).

For “GATGATTGTTCTCCCAGCTGATGAATTTAAGGCATCGAGTAAACAAATTTTCCTAATCTTTCTGTTCAAGCGCCATCTAC”, the binding signal was 1 RPM ratio (pull-down/input).

For “GATGATTGTTCTCCCAGCTGATGAATTTTAGATATCGAGTAAACAAATTTTCCTAATCTTTCTGTTCAAGCGCCATCTAC”, the binding signal is 1.04 RPM ratio (pull-down/input).

Turning to “GATGATTGTTCTCCCAGCTGATGAATTGGCATCTTCGAGTAAACAAATTTTCCTAATCTTTCTGTTCAAGCGCCATCTAC”, the binding signal was 1.1 RPM ratio (pull-down/input).

On to “GATGATTGTTCTCCCAGCTGATGAATTAAGGCCTTCGAGTAAACAAATTTTCCTAATCTTTCTGTTCAAGCGCCATCTAC”, for which the binding signal is 0.867 RPM ratio (pull-down/input).

In the case of “GATGATTGTTCTCCCAGCTGATGAATTTAGGACGTCGAGTAAACAAATTTTCCTAATCTTTCTGTTCAAGCGCCATCTAC”, the binding signal was 0.956 RPM ratio (pull-down/input).

Turning to “GATGATTGTTCTCCCAGCTGATGAATTACTATGTTCGAGTAAACAAATTTTCCTAATCTTTCTGTTCAAGCGCCATCTAC”, the binding signal is 1.25 RPM ratio (pull-down/input).

Take “GATGATTGTTCTCCCAGCTGATGAATTGTATCAATCGAGTAAACAAATTTTCCTAATCTTTCTGTTCAAGCGCCATCTAC”: the binding signal was 1.25 RPM ratio (pull-down/input).

Take “GATGATTGTTCTCCCAGCTGATGAATTCAATGGCTCGAGTAAACAAATTTTCCTAATCTTTCTGTTCAAGCGCCATCTAC”: the binding signal is 0.854 RPM ratio (pull-down/input).

Take “GATGATTGTTCTCCCAGCTGATGAATTCACGACCTCGAGTAAACAAATTTTCCTAATCTTTCTGTTCAAGCGCCATCTAC”: the binding signal was 0.767 RPM ratio (pull-down/input).

As for “GATGATTGTTCTCCCAGCTGATGAATTAGGCTTCTCGAGTAAACAAATTTTCCTAATCTTTCTGTTCAAGCGCCATCTAC”, the binding signal was 0.864 RPM ratio (pull-down/input).

As to “GATGATTGTTCTCCCAGCTGATGAATTTCTCGACTCGAGTAAACAAATTTTCCTAATCTTTCTGTTCAAGCGCCATCTAC”, the binding signal was 0.876 RPM ratio (pull-down/input).

“GATGATTGTTCTCCCAGCTGATGAATTGTGATGCTCGAGTAAACAAATTTTCCTAATCTTTCTGTTCAAGCGCCATCTAC”: the binding signal is 1.54 RPM ratio (pull-down/input).

With “GATGATTGTTCTCCCAGCTGATGAATTGAACATGTCGAGTAAACAAATTTTCCTAATCTTTCTGTTCAAGCGCCATCTAC”, the binding signal was 0.848 RPM ratio (pull-down/input).

“GATGATTGTTCTCCCAGCTGATGAATTGGTTACCTCGAGTAAACAAATTTTCCTAATCTTTCTGTTCAAGCGCCATCTAC”: the binding signal is 0.933 RPM ratio (pull-down/input).

Regarding “GATGATTGTTCTCCCAGCTGATGAATTCCGGGAGTCGAGTAAACAAATTTTCCTAATCTTTCTGTTCAAGCGCCATCTAC”, the binding signal was 0.742 RPM ratio (pull-down/input).

“GATGATTGTTCTCCCAGCTGATGAATTTCCCTTCTCGAGTAAACAAATTTTCCTAATCTTTCTGTTCAAGCGCCATCTAC”: the binding signal was 0.799 RPM ratio (pull-down/input).

Take “GATGATTGTTCTCCCAGCTGATGAATTACGGTATTCGAGTAAACAAATTTTCCTAATCTTTCTGTTCAAGCGCCATCTAC”: the binding signal was 1.14 RPM ratio (pull-down/input).

In the case of “GATGATTGTTCTCCCAGCTGATGAATTCCTATTCTCGAGTAAACAAATTTTCCTAATCTTTCTGTTCAAGCGCCATCTAC”, the binding signal was 0.762 RPM ratio (pull-down/input).

In the case of “GATGATTGTTCTCCCAGCTGATGAATTCGCCGCATCGAGTAAACAAATTTTCCTAATCTTTCTGTTCAAGCGCCATCTAC”, the binding signal was 1.04 RPM ratio (pull-down/input).

For “GATGATTGTTCTCCCAGCTGATGAATTCTTCCCCTCGAGTAAACAAATTTTCCTAATCTTTCTGTTCAAGCGCCATCTAC”, the binding signal is 0.856 RPM ratio (pull-down/input).

As for “GATGATTGTTCTCCCAGCTGATGAATTCACCGGGTCGAGTAAACAAATTTTCCTAATCTTTCTGTTCAAGCGCCATCTAC”, the binding signal was 0.769 RPM ratio (pull-down/input).

As for “GATGATTGTTCTCCCAGCTGATGAATTTTAAGGTTCGAGTAAACAAATTTTCCTAATCTTTCTGTTCAAGCGCCATCTAC”, the binding signal was 0.819 RPM ratio (pull-down/input).

For “GATGATTGTTCTCCCAGCTGATGAATTGAGCACATCGAGTAAACAAATTTTCCTAATCTTTCTGTTCAAGCGCCATCTAC”, the binding signal is 1.03 RPM ratio (pull-down/input).

Take “GATGATTGTTCTCCCAGCTGATGAATTCCGAAGGTCGAGTAAACAAATTTTCCTAATCTTTCTGTTCAAGCGCCATCTAC”: the binding signal is 0.755 RPM ratio (pull-down/input).

For “GATGATTGTTCTCCCAGCTGATGAATTCAGTACATCGAGTAAACAAATTTTCCTAATCTTTCTGTTCAAGCGCCATCTAC”, the binding signal was 1.01 RPM ratio (pull-down/input).

As for “GATGATTGTTCTCCCAGCTGATGAATTAAGCAATTCGAGTAAACAAATTTTCCTAATCTTTCTGTTCAAGCGCCATCTAC”, the binding signal is 1.07 RPM ratio (pull-down/input).

Turning to “GATGATTGTTCTCCCAGCTGATGAATTCGTAAGTTCGAGTAAACAAATTTTCCTAATCTTTCTGTTCAAGCGCCATCTAC”, the binding signal was 0.865 RPM ratio (pull-down/input).

In the case of “GATGATTGTTCTCCCAGCTGATGAATTAGATAAATCGAGTAAACAAATTTTCCTAATCTTTCTGTTCAAGCGCCATCTAC”, the binding signal is 1.24 RPM ratio (pull-down/input).

Take “GATGATTGTTCTCCCAGCTGATGAATTAAAGTGGTCGAGTAAACAAATTTTCCTAATCTTTCTGTTCAAGCGCCATCTAC”: the binding signal was 0.825 RPM ratio (pull-down/input).

“GATGATTGTTCTCCCAGCTGATGAATTCTCTGATTCGAGTAAACAAATTTTCCTAATCTTTCTGTTCAAGCGCCATCTAC”: the binding signal is 0.893 RPM ratio (pull-down/input).

Regarding “GATGATTGTTCTCCCAGCTGATGAATTTCTGTGTTCGAGTAAACAAATTTTCCTAATCTTTCTGTTCAAGCGCCATCTAC”, the binding signal was 1.23 RPM ratio (pull-down/input).
